Reference: PMC5501724, “Structural Basis for Specific Interaction of TGFβ Signaling Regulators SARA/Endofin with HD-PTP” (Structure(London, England:1993), 2017)
Numbering of substitutions follows the chain as printed. Results are given in words; binding and its absence hold for the method and conditions named. In cells and extracts the contact can be indirect. Some entries that bind do so weakly or less than the wild type. Tags and fused reporters may be left off the sequences shown.

The chains behind the UniProt entries cited, without tags or fusion partners.
UniProt Q7Z3T8: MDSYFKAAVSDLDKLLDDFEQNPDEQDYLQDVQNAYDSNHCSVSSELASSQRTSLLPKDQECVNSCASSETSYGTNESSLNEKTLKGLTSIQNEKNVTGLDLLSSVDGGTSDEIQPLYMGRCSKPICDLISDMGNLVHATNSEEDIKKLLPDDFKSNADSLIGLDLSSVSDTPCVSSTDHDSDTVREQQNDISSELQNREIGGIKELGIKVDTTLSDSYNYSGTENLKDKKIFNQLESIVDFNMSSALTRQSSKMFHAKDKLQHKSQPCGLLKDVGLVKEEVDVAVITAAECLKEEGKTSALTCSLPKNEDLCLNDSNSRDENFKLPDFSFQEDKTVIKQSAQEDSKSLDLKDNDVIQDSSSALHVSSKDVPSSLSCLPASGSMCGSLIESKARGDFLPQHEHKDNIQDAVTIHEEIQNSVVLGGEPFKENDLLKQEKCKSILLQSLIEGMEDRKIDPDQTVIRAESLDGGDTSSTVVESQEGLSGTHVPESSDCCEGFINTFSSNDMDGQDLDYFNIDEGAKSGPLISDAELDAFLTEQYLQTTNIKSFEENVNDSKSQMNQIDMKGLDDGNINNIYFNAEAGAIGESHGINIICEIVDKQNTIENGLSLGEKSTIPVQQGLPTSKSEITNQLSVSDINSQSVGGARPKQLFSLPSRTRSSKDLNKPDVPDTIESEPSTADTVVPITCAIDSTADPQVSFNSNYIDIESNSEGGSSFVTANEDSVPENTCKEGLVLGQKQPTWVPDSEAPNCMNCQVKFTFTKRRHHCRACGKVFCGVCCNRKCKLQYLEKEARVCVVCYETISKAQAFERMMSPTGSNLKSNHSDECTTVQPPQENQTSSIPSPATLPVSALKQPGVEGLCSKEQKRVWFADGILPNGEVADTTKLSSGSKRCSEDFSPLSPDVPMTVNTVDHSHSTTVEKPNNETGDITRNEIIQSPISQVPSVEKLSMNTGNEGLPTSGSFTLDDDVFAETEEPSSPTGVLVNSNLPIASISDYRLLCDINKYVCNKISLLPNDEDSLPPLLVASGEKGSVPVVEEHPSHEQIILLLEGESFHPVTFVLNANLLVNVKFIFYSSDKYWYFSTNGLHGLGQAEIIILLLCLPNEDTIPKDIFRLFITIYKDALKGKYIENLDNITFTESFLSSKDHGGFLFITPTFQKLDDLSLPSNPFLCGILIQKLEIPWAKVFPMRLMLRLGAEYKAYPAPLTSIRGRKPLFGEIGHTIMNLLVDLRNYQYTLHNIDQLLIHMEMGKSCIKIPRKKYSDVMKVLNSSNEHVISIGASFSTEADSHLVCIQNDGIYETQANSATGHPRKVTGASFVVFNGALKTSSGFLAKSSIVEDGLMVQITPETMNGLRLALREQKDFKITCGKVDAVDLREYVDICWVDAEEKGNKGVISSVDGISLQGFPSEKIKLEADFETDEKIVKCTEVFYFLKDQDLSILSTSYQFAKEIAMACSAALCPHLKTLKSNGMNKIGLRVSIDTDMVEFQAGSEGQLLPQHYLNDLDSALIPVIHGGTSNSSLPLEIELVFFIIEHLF

Columns and labels:
Test in all cases: co-IP; HA-tagged HD-PTP constructs expressed in cells; lysates in IP1 buffer (25 mM Tris-HCl pH 7.5, 40 mM NaCl, 0.5% IGEPAL); anti-HA immunoprecipitates blotted for endogenous endofin or SARA
[1] = target: T1, HA-HD-PTP_(Bro1-CC) R69L, expressed in cells (human) (UniProt Q9H3S7)
T1 sequence: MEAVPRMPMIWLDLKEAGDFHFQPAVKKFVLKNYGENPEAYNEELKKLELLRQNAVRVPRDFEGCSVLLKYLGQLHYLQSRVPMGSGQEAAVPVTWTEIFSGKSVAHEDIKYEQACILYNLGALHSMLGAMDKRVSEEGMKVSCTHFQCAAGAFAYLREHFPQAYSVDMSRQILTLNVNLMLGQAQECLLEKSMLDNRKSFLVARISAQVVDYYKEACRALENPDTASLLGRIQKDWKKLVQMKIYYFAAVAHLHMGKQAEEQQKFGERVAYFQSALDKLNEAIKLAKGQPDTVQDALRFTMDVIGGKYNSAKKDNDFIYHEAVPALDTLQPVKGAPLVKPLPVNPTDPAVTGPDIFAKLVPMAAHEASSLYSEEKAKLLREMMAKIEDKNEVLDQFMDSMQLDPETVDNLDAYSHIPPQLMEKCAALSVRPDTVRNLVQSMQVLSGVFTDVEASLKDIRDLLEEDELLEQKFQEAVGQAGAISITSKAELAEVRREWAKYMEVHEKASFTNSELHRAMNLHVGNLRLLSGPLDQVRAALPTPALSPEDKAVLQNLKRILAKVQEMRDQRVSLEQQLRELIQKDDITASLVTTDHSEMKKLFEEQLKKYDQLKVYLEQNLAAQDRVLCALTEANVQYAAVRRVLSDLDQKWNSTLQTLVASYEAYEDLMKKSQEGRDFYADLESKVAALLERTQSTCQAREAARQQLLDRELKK

[2] = target: T2, HA-HD-PTP_(Bro1-CC) L202D, expressed in cells (human) (UniProt Q9H3S7)
T2 sequence: T1 sequence with L69R, L202D

[3] = target: T3, HA-HD-PTP_(Bro1-CC) R198M, expressed in cells (human) (UniProt Q9H3S7)
T3 sequence: T1 sequence with L69R, R198M

endogenous endofin (from UniProt Q7Z3T8 1-1539)
binding [1]: binds
binding [2]: no binding
binding [3]: binds
